# Source: the supplement of paper PMC3334620
# The full ranking holds about 33,000 sequences; the median of “E-score (-0.5 to 0.5)” is about -0.011, and the highest 2% start at about 0.28. The list shows a part of the results.
# Target: T1, Gcr1 (UniProt P07261)
# T1 sequence: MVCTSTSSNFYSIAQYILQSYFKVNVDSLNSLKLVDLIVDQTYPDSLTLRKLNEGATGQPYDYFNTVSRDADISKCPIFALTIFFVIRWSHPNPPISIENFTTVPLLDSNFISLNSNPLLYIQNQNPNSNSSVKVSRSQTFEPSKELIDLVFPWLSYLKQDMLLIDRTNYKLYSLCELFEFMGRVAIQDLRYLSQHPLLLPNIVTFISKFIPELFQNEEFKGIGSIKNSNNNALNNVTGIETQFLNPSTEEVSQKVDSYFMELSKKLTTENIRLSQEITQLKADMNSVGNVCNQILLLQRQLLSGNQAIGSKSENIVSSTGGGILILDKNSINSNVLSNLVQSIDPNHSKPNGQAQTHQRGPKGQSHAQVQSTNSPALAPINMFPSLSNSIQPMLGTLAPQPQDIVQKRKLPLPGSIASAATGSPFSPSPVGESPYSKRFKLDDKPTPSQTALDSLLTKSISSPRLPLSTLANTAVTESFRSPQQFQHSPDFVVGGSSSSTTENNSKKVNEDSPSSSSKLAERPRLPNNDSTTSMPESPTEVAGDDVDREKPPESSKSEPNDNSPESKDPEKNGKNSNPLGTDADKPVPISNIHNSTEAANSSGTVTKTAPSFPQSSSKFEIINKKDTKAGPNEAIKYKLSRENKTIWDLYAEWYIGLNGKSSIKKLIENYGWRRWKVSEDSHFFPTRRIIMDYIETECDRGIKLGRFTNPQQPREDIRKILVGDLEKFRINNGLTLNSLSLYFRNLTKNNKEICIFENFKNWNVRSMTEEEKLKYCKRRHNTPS
# Assay: PBM E-score (8-mer binding enrichment) (E-score (-0.5 to 0.5)); higher = stronger / more preferred TF binding; most listed sequences are background and not binding sites
# Conditions: protein concentration: 100 nM; construct: GST-full length
# Experimental: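 Universal 'all 10-mer' protein binding microarrays (Agilent AMADID 015681) probed with GST-tagged S. cerevisiae TFs (full-length or DBD) made by in vitro transcription/translation (PURExpress), about 100-200 nM. Bound TF was detected with fluorescent anti-GST. Each ungapped 8-mer (which stands for itself and its reverse complement) is scored by the PBM enrichment score (E-score), a modified Wilcoxon-Mann-Whitney statistic from -0.5 to +0.5, computed with the Universal PBM Analysis Suite. Scale: above 0.35 generally sequence-specific binding.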
row,Sequence,PBM E-score
1,ACTTTTTC,0.0256
2,AAAATAGC,0.272
3,AATCTCAA,0.122
4,ACTTAGCA,-0.0589
5,CCACCTCA,-0.115
6,GGTGTTAC,-0.21
7,AACACGAC,0.0243
8,GCACTCGC,-0.029
9,AAGTGACA,-0.212
10,GCAGCGGA,0.0692
11,ATGCTGGA,0.0516
12,AGACAAAA,-0.0639
13,CACCGCAA,-0.00555
14,GCTCCTCC,-0.147
15,GCTAGCAC,-0.0767
16,TACCCATA,0.0882
17,ACAATCGG,0.104
18,GCATTGAC,-0.0897
19,CACAGGAA,0.118
20,CATCCATA,0.186
21,GGGTGTGA,-0.142
22,CCTCCGCA,-0.0531

row,Sequence,PBM E-score
1,CCGATAGC,-0.126
2,AGGAGTAT,0.0247
3,CGGCCCTC,-0.282
4,GGGATCAC,-0.137
5,AGTAACGG,-0.0621
6,CCCGACGC,0.0883
7,ATCTTCTG,0.136
8,CGCAGACC,-0.203
9,AGATAGCC,-0.2
10,GGACCGAC,-0.135
11,CACAGTGG,0.155
12,CAGAATTC,0.0715
13,CCCGATCA,-0.216
14,AACCCACA,0.067
15,AAGAAGAC,0.0399
16,AACATGGA,0.103
17,GACCTGGC,-0.144
18,GGGATAGA,-0.035
19,GATGTGCC,-0.203
20,CTTACAAC,-0.0915
21,CTGAGCAG,-0.0367
22,GATCCAAC,0.0768

row,Sequence,PBM E-score
1,CGTTTACC,-0.121
2,CCCTATAG,-0.0288
3,GTAGTAAC,0.0219
4,AACGCCGC,0.123
5,ACTGGGGG,-0.0577
6,GTTCGAGA,-0.0243
7,ATAAAGCC,-0.0798
8,AATTGCGG,-0.065
9,CACAAGGA,0.119
10,CTATTCTA,-0.0324
11,AGAATATG,0.113
12,GCCGTCAC,-0.0324
13,GCGACGCC,0.23
14,CGGGTGAC,-0.0558
15,AACTTCCT,0.376
16,CAGTAGAA,0.138
17,ATCAGGGC,-0.25
18,CCCGGAGA,-0.242
19,CGTGAAAA,-0.0241
20,GCTGACGA,0.0127
21,GCGTGCGA,-0.0728
22,GTGCTGCA,-0.0263

row,Sequence,PBM E-score
1,GGAGGAAA,-0.318
2,CGATAGGC,-0.0212
3,CTTCATCA,-0.0741
4,AATTCCCG,0.194
5,AATGATGG,0.109
6,CAGAACTC,-0.0208
7,AGGGACTA,-0.126
8,ATGGTGAC,-0.0252
9,ACATACAC,0.13
10,AGGTATCC,0.28
11,GATAACAC,-0.12
12,CAAGAATG,0.117
13,CAATGTTA,0.0869
14,CGGGACAC,0.124
15,TATACATA,0.0411
16,CGAAGCAC,-0.135
17,ACAGCACT,-0.252
18,AAAACTGG,0.254
19,ACCTCGCC,-0.328
20,GGCTGTTA,-0.126
